Experimental data as given in the BET-seq Pho4 binding data (Le et al. 2018).
This is one part of the list. These are noisy estimates, calculated here from bound and input reads.

The sequences below were run against T1, Pho4 (S. cerevisiae) (UniProt P07270) (assay: relative binding free energy (BET-seq); higher = weaker binding). Conditions: reference: library average.
T1 sequence: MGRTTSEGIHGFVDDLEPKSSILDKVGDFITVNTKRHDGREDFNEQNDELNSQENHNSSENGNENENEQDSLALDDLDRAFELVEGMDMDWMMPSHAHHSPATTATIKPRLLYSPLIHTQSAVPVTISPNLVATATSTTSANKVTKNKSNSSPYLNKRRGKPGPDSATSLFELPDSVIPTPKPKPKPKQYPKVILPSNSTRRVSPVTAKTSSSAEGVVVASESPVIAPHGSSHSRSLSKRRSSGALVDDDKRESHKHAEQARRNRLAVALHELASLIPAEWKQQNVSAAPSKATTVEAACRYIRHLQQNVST
In the case of AAAAGCACGTGTTGGA, the “relative binding free energy” value is reported as 0.03 kcal/mol.
With GGCTCCACGTGTGGGG the “relative binding free energy” value was 0.11 kcal/mol.
GGCTGCACGTGGAATG was tested, and the “relative binding free energy” value was 0.12 kcal/mol.
In the case of CTCGTCACGTGGGAGT, the “relative binding free energy” value is reported as 0.09 kcal/mol.
In the case of ATAAACACGTGTGTGG, the “relative binding free energy” value is reported as 0.01 kcal/mol.
ATATTCACGTGTATGG was tested, and the “relative binding free energy” value was 0.22 kcal/mol.
For CTGTTCACGTGGTGTC, the “relative binding free energy” value was 0.17 kcal/mol.
GTATGCACGTGTTTAA was tested, and the “relative binding free energy” value was -0.15 kcal/mol.
TGTTGCACGTGGACAT was tested, and the “relative binding free energy” value was -0.11 kcal/mol.
With ACGCGCACGTGTGGTT the “relative binding free energy” value was -0.06 kcal/mol.
In the case of GGGAACACGTGTAAGG, the “relative binding free energy” value is reported as 0.19 kcal/mol.
With CGAGTCACGTGATGGT the “relative binding free energy” value was 0.17 kcal/mol.
GTTTACACGTGATGGT was tested, and the “relative binding free energy” value was 0.31 kcal/mol.
In the case of TGGGACACGTGTTTGA, the “relative binding free energy” value is reported as -0.05 kcal/mol.
TAACTCACGTGGTGGT was tested, and the “relative binding free energy” value was 0.1 kcal/mol.
For TTGTACACGTGAGAAG, the “relative binding free energy” value was 0.19 kcal/mol.
With TGTTACACGTGAGGAT the “relative binding free energy” value was 0.22 kcal/mol.
TGTGGCACGTGAGTGA was tested, and the “relative binding free energy” value was 0.21 kcal/mol.
ATATGCACGTGAGGGG was tested, and the “relative binding free energy” value was 0.18 kcal/mol.
With GCGTGCACGTGTAATG the “relative binding free energy” value was 0.01 kcal/mol.
For GGTTTCACGTGTCGTG, the “relative binding free energy” value was 0.33 kcal/mol.
With GTACGCACGTGTGTAG the “relative binding free energy” value was -0.16 kcal/mol.
For TTACGCACGTGGGGGC, the “relative binding free energy” value was -0.31 kcal/mol.
With CTATTCACGTGGAGGT the “relative binding free energy” value was 0.1 kcal/mol.
With CGTGTCACGTGATAGG the “relative binding free energy” value was 0.22 kcal/mol.
With GTTTACACGTGGGGCC the “relative binding free energy” value was 0.08 kcal/mol.
GAATTCACGTGATGGG was tested, and the “relative binding free energy” value was 0.35 kcal/mol.
For TATCGCACGTGGTGTA, the “relative binding free energy” value was -0.4 kcal/mol.
AGTTGCACGTGGAGCG was tested, and the “relative binding free energy” value was 0.05 kcal/mol.
In the case of TAGGACACGTGGAGCG, the “relative binding free energy” value is reported as 0 kcal/mol.
With TGGCGCACGTGAATGT the “relative binding free energy” value was 0.22 kcal/mol.
AACGTCACGTGGGGGT was tested, and the “relative binding free energy” value was -0.08 kcal/mol.
With TGTTTCACGTGTTGTT the “relative binding free energy” value was 0.35 kcal/mol.
ACGTTCACGTGGTTTT was tested, and the “relative binding free energy” value was 0.16 kcal/mol.
For TGGATCACGTGGTGTT, the “relative binding free energy” value was 0.1 kcal/mol.
For AGGTGCACGTGCGGTC, the “relative binding free energy” value was -0.05 kcal/mol.
In the case of ATGCGCACGTGGAGGT, the “relative binding free energy” value is reported as -0.14 kcal/mol.
In the case of GATTTCACGTGCTGAG, the “relative binding free energy” value is reported as 0.53 kcal/mol.
With TGAATCACGTGAATGA the “relative binding free energy” value was 0.39 kcal/mol.
CAGGACACGTGGGGAG was tested, and the “relative binding free energy” value was -0.16 kcal/mol.
For CAGTGCACGTGGTGAT, the “relative binding free energy” value was -0.11 kcal/mol.
GTCTACACGTGCGGTT was tested, and the “relative binding free energy” value was 0.18 kcal/mol.
ATGGTCACGTGTGATA was tested, and the “relative binding free energy” value was 0.21 kcal/mol.
In the case of TTCTGCACGTGAATTG, the “relative binding free energy” value is reported as 0.16 kcal/mol.
With CGATCCACGTGGGGGT the “relative binding free energy” value was -0.17 kcal/mol.
In the case of ATGTACACGTGACGTT, the “relative binding free energy” value is reported as 0.07 kcal/mol.
In the case of AATTACACGTGCGGGT, the “relative binding free energy” value is reported as 0.12 kcal/mol.
With AGAGGCACGTGTGGAC the “relative binding free energy” value was -0.11 kcal/mol.
TTAGTCACGTGACTGA was tested, and the “relative binding free energy” value was 0.22 kcal/mol.
AATATCACGTGAGGTC was tested, and the “relative binding free energy” value was 0.35 kcal/mol.
CTCGACACGTGTGTGT was tested, and the “relative binding free energy” value was 0.01 kcal/mol.
In the case of TTGCTCACGTGGGATG, the “relative binding free energy” value is reported as 0.04 kcal/mol.
In the case of GCGGGCACGTGAGTCG, the “relative binding free energy” value is reported as 0.09 kcal/mol.
With GTGCCCACGTGGGGGA the “relative binding free energy” value was -0.31 kcal/mol.
With GTTAACACGTGTGTGT the “relative binding free energy” value was 0.07 kcal/mol.
In the case of TTTTTCACGTGAACAG, the “relative binding free energy” value is reported as 0.34 kcal/mol.
TTAGTCACGTGGTGCA was tested, and the “relative binding free energy” value was -0.09 kcal/mol.
ATGGACACGTGATTAG was tested, and the “relative binding free energy” value was 0.18 kcal/mol.
CAGGTCACGTGTATTT was tested, and the “relative binding free energy” value was 0.2 kcal/mol.
AGTTGCACGTGAGTGG was tested, and the “relative binding free energy” value was 0.25 kcal/mol.
In the case of AATTTCACGTGCTAGT, the “relative binding free energy” value is reported as 0.13 kcal/mol.
For TGGGTCACGTGCTGGC, the “relative binding free energy” value was 0.04 kcal/mol.
For TATAGCACGTGAGGTC, the “relative binding free energy” value was 0.19 kcal/mol.
With TGGTGCACGTGGAAGA the “relative binding free energy” value was -0.03 kcal/mol.
In the case of ATTGACACGTGAGGGT, the “relative binding free energy” value is reported as 0.09 kcal/mol.
In the case of AGTATCACGTGTATTG, the “relative binding free energy” value is reported as 0 kcal/mol.
GGGCACACGTGCTTGG was tested, and the “relative binding free energy” value was -0.03 kcal/mol.
With GGGCACACGTGTTGTA the “relative binding free energy” value was 0.21 kcal/mol.
With CTGTGCACGTGATCGG the “relative binding free energy” value was 0.03 kcal/mol.
In the case of AGGGGCACGTGGCGGA, the “relative binding free energy” value is reported as -0.32 kcal/mol.
With CTGGGCACGTGCGTGG the “relative binding free energy” value was -0.33 kcal/mol.
In the case of GTTCTCACGTGGAAGT, the “relative binding free energy” value is reported as 0.2 kcal/mol.
With GGTAGCACGTGGTTAC the “relative binding free energy” value was -0.02 kcal/mol.
For TTTGTCACGTGGGTAT, the “relative binding free energy” value was 0.05 kcal/mol.
In the case of AGTTACACGTGTGTAT, the “relative binding free energy” value is reported as 0.06 kcal/mol.
With TGCCACACGTGGGGTG the “relative binding free energy” value was -0.18 kcal/mol.
ACTTTCACGTGCAGGT was tested, and the “relative binding free energy” value was 0.39 kcal/mol.
With GGGGGCACGTGTAATA the “relative binding free energy” value was -0.1 kcal/mol.
In the case of GGTCGCACGTGGTGGG, the “relative binding free energy” value is reported as -0.05 kcal/mol.
With ATTGTCACGTGGTCGA the “relative binding free energy” value was -0.05 kcal/mol.
In the case of CAATGCACGTGTGGAT, the “relative binding free energy” value is reported as 0.02 kcal/mol.
For ATTATCACGTGGAGCG, the “relative binding free energy” value was 0.1 kcal/mol.
For GGTGACACGTGATCGG, the “relative binding free energy” value was 0.06 kcal/mol.
With GACGGCACGTGGGAGA the “relative binding free energy” value was 0.07 kcal/mol.
CTTGTCACGTGCGTTG was tested, and the “relative binding free energy” value was 0.14 kcal/mol.
With CTCGTCACGTGTGGGG the “relative binding free energy” value was 0.05 kcal/mol.
CTCGACACGTGGGTTT was tested, and the “relative binding free energy” value was 0.03 kcal/mol.
For GCGTCCACGTGATGGT, the “relative binding free energy” value was 0.42 kcal/mol.
For GATGACACGTGAGATG, the “relative binding free energy” value was 0.33 kcal/mol.
In the case of AGAGGCACGTGCGGGC, the “relative binding free energy” value is reported as -0.2 kcal/mol.
For TGGGGCACGTGTACAG, the “relative binding free energy” value was -0.03 kcal/mol.
For TGAGTCACGTGGTCCG, the “relative binding free energy” value was 0.01 kcal/mol.
With GTAGCCACGTGTGGGA the “relative binding free energy” value was 0.04 kcal/mol.
In the case of GGTGGCACGTGGGGAT, the “relative binding free energy” value is reported as -0.09 kcal/mol.
With AATTGCACGTGTGTAA the “relative binding free energy” value was 0.03 kcal/mol.
For GTTGTCACGTGGGAGT, the “relative binding free energy” value was 0.08 kcal/mol.
With TAGCGCACGTGCGAGG the “relative binding free energy” value was -0.08 kcal/mol.
In the case of GAGTACACGTGCGTGG, the “relative binding free energy” value is reported as 0.12 kcal/mol.
For GGAGGCACGTGACGGG, the “relative binding free energy” value was 0.17 kcal/mol.
With TTAGACACGTGTGTAG the “relative binding free energy” value was 0.06 kcal/mol.
In the case of AATTACACGTGAGTTT, the “relative binding free energy” value is reported as 0.32 kcal/mol.
For TTTGACACGTGTGATC, the “relative binding free energy” value was 0.12 kcal/mol.
For ATGGGCACGTGAATGG, the “relative binding free energy” value was 0.09 kcal/mol.
In the case of TGCGTCACGTGAGTTG, the “relative binding free energy” value is reported as 0.3 kcal/mol.
GGGTCCACGTGGTGTC was tested, and the “relative binding free energy” value was -0.07 kcal/mol.
With AGTTTCACGTGAGTGA the “relative binding free energy” value was 0.39 kcal/mol.
In the case of TGATTCACGTGATTGA, the “relative binding free energy” value is reported as 0.44 kcal/mol.
With TACTTCACGTGGTAGG the “relative binding free energy” value was 0.21 kcal/mol.
For ATAGACACGTGTGGAG, the “relative binding free energy” value was 0.06 kcal/mol.
TTCGACACGTGATTTT was tested, and the “relative binding free energy” value was 0.14 kcal/mol.
For GGTTTCACGTGCTCGA, the “relative binding free energy” value was 0.3 kcal/mol.
GTATTCACGTGAAATT was tested, and the “relative binding free energy” value was 0.35 kcal/mol.
TGGCGCACGTGAAGGT was tested, and the “relative binding free energy” value was 0.19 kcal/mol.
For CGAGTCACGTGAATGG, the “relative binding free energy” value was 0.31 kcal/mol.
For GTTAACACGTGTTGCA, the “relative binding free energy” value was 0.12 kcal/mol.
